In PubChem BioAssay AID1460 (National Center for Advancing Translational Sciences (NCATS), 2008):
“And” between values parts separate entries of the source, which are not always exact repeats. Identical values can stand only once. The campaign covered roughly 270,000 compounds. About 5,800 (2.1%) were called active. Inconclusive means that the source gave no clear call. Such entries were picked first, then a sample of the others. The call rests on the fitted dose curve; in most records, active means well fitted inhibition curve with a large enough effect; inconclusive means small, poorly fitted or top-dose-only effect; inactive means flat fitted curve, though single readings scatter. Potencies of inconclusive entries are doubtful fits and often do not repeat.

target: Microtubule-associated protein tau (Homo sapiens) (UniProt P10636); assay: qHTS for Inhibitors of Tau Fibril Formation, Thioflavin T Binding; conditions: recombinant tau K18 P301L (four-repeat tau fragment), heparin-induced fibrillization, ThT fluorescence; series mostly up to 57.4 µM; further: nearly all actives have a fitted effect of over 55% in size
Chain of UniProt P10636 (P10636 whole entry, looked up, the tested form may be a part): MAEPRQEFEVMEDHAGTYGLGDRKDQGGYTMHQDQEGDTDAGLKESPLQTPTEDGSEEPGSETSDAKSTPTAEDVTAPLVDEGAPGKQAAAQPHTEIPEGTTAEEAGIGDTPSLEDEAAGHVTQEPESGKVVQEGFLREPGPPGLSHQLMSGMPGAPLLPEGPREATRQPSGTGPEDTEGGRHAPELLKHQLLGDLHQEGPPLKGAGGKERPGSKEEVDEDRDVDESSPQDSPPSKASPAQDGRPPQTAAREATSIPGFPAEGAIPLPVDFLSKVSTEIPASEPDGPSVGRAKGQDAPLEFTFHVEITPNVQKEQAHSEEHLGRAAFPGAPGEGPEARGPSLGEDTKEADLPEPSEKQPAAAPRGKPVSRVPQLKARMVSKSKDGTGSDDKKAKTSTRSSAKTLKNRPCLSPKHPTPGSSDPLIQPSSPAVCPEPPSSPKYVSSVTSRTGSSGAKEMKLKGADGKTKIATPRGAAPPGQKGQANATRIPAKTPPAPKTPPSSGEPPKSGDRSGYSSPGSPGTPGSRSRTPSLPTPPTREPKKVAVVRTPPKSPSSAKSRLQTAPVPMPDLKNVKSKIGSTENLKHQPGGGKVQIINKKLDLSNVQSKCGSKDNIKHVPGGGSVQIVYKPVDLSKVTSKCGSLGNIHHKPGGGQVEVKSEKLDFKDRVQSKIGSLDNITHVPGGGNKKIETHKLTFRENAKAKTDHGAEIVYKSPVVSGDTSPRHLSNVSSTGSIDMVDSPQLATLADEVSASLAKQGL
How it was run: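 Aggregation was driven by heparin (20 uM final) acting on recombinant tau […] bearing P301L in 100 mM sodium acetate pH 7; fibrils were detected with Thioflavin T.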
On the % scale 0 is the no-effect control and ±100 the full control effect; potency means the concentration at half of the fitted maximal effect; tags describe the fitted curve by direction and shape.

Compound	Potency	activity, negative = inhibition
S=c1[nH]nc(-c2cc(-c3ccccc3)n[nH]2)n1/N=C/c1cccc(Cl)c1	inconclusive: 8.91 µM [inhibitor, partial curve, poor fit]	–
Cc1c(Cc2ccccc2)sc(NC(=O)C(C)(C)C)c1C(N)=O	inconclusive: 28.2 µM [inhibitor, partial curve]	–
CCOc1ccc(NC(=S)NCc2ccc3[nH]c(C)cc3c2)cc1	inconclusive: 7.08 µM [inhibitor, partial curve]	–
COc1cc([N+](=O)[O-])ccc1N=Nc1c(N)[nH]n(-c2ccccc2)c1=O	inconclusive: 11.2 µM [inhibitor, partial curve]	–
COc1cccc(C(=O)c2cn(CC(=O)Nc3cccc(Cl)c3C)c3nc(C)ccc3c2=O)c1	inconclusive: 10 µM [inhibitor, partial curve]	–
CCCN1Cc2cccc(C(=O)Nc3ccc(OC)cc3OC)c2C1=O	inconclusive: 15.8 µM [inhibitor, partial curve]	–
CCOc1ccc2[nH]c(=O)c(CN(CCN3CCCC3)C(=S)Nc3ccccc3OCC)cc2c1	inconclusive: 10 µM [inhibitor, partial curve]	–
CC1CCCC/C1=N\NS(=O)(=O)c1ccc(Br)cc1 (configuration not stated)	inactive	–
CCn1c(CN2CCC(C)CC2)nc2cc(NC(=O)c3cccc([N+](=O)[O-])c3)ccc21	inconclusive: 28.2 µM [inhibitor, single point]	–
COc1ccc(OC)c(CCNc2ncnc3onc(C)c23)c1	inactive	–
O=C(COc1ccc([N+](=O)[O-])cc1)N/N=C/c1cc([N+](=O)[O-])ccc1N1CCOCC1	active: 3.98 µM	–
O=C(NC(=S)NCc1ccco1)c1ccccc1	inactive	–
Cc1c(NC(=O)CSc2nnc(-c3ccco3)n2-c2ccccc2)c(=O)n(-c2ccccc2)n1C	inactive	–
O=C(NC1(C(F)(F)F)N=C(c2ccccc2)N(C2CCCCC2)C1=O)c1ccccc1F (configuration not stated)	inactive	–
CC(=O)c1c(C)[nH]c(C(=O)Nc2nc(C)cs2)c1C	inactive	–
Cc1ccc(C2=NN(C(=O)CCC(=O)O)C(c3cn(-c4ccccc4)nc3-c3ccc(C)cc3)C2)cc1 (configuration not stated)	inconclusive: 22.4 µM [inhibitor, partial curve]	–
Cc1cc(C)cc(NC(=O)Nc2c[nH]c(=O)[nH]c2=O)c1	inactive	–
CSc1cccc(NC(=O)N2CCN(C)CC2)c1	inconclusive: 8.91 µM [activator, single point]	–
COC(=O)C1=C(C)NC2=C(C(=O)c3ccccc32)C1c1ccc(-c2ccc(C(=O)O)cc2)o1 (configuration not stated)	active: 8.91 µM	–
CC(=O)N1CCc2c(sc(NC(=O)CSc3ccc(C)cc3)c2-c2nc3ccccc3s2)C1	inconclusive: 31.6 µM [inhibitor, single point]	–
Cc1ccc(CCNC(=O)c2ccc(CNS(=O)(=O)c3ccc(F)cc3)cc2)cc1	inconclusive: 1.12 µM [inhibitor, full curve, poor fit]	–
Nc1c(C(=O)Nc2ccccc2F)sc2nc(Cc3ccccc3)cc(C(F)(F)F)c12	inconclusive: 15.8 µM [activator, partial curve]	–
COC(=O)c1cc2sc(Cl)cc2n1Cc1nc(-c2ccccc2F)oc1C	inactive	–
COC(=O)C1=C(C)N(Cc2ccccc2)C2=C3C(=O)N(C)C(=O)C3[C@@](O)(C(=O)OC)C(=O)N2C1c1ccccc1 (some centres not stated)	–	inactive: -10.5% [at 11.5 µM] and inactive: -20.8% [at 11.5 µM]

Compound	Potency	activity, negative = inhibition
O=C(O)CCCn1c(O)c(C=C2N=c3ccccc3=N2)sc1=S	inconclusive: 15.8 µM [inhibitor, partial curve]	–
CCOC(=O)/C(C#N)=C/c1ccc(N2CCN(C)CC2)cc1	inconclusive: 15.8 µM [inhibitor, partial curve]	–
Cc1cccc(C)c1N/C=C/c1onc(C)c1[N+](=O)[O-]	inactive	–
CN(C)c1ccc(C=Nc2cnn(C)c2C(N)=O)cc1	inconclusive: 17.8 µM [inhibitor, partial curve]	–
COC(=O)c1n[nH]n(-c2cc(Cl)cc(Cl)c2)c1=O	inactive	–
COc1ccc(NC(=O)c2oc3ccc4c(c3c2C)C(=O)CC(C)(C)O4)cc1OC	inconclusive: 12.6 µM [inhibitor, partial curve]	–
CCN(CC)c1ccc(/C=N/NC(=O)c2cccc(S(=O)(=O)N3CCOCC3)c2)cc1	inconclusive: 28.2 µM [inhibitor, single point]	–
CC(SC1=NCCS1)C(=O)Nc1nnc(-c2ccc(F)cc2)s1 (configuration not stated)	inconclusive: 12.6 µM [inhibitor, partial curve]	–
O=C1CCCN2N=C(SCC(=O)Nc3nccs3)SC2=N1	inconclusive: 6.31 µM [inhibitor, partial curve]	–
O=C(c1cc2ccccc2o1)c1nc2c(n1O)CCCCC2	inconclusive: 14.1 µM [inhibitor, partial curve]	–
COc1ccc2ccccc2c1/C=N/N1C(=O)CSC1=S	active: 11.2 µM	–
Cc1ccc(-c2ccc(/C=C3/NC(=O)NC3=O)o2)cc1[N+](=O)[O-]	inconclusive: 10 µM [inhibitor, partial curve]	–
COCc1cc(=O)[nH]c(SCCS(=O)(=O)c2ccc(Cl)cc2Cl)n1	inactive	–
CSc1ccccc1NC(=O)COc1ccc(Cl)cc1Cl	inconclusive: 25.1 µM [inhibitor, single point]	–
O=C(Nc1nnc(Cc2ccc([N+](=O)[O-])cc2)s1)c1ccc2c(c1)OCO2	inconclusive: 17.8 µM [inhibitor, partial curve]	–
COc1cccc(C(=O)Oc2cc3c4c(c2)C(C)=CC(C)(C)N4C(=O)C3=O)c1	inconclusive: 31.6 µM [inhibitor, single point]	–
COC(=O)c1ccccc1NC(=O)CSc1nc(O)cc(=O)n1C1CCCC1	inconclusive: 25.1 µM [inhibitor, single point]	–
CC(=O)c1c(C)c(C)c2n1CCn1c(C)ccc1-2	active: 15.8 µM	–
CC(C)OC(=O)C(C(=O)C(F)(F)F)c1cc(NS(=O)(=O)c2ccc3ccccc3c2)c2ccccc2c1O (configuration not stated)	inconclusive: 14.1 µM [inhibitor, partial curve]	–
Cc1ccc(N2C(=O)[C@@H]3CSC(c4ccc(C(F)(F)F)cc4)N3C2=O)cc1 (some centres not stated)	inactive	–
O=C(Nc1ccc2c(c1)OCCO2)c1coc2ccccc2c1=O	inconclusive: 7.94 µM [inhibitor, partial curve]	–
CCOC(=O)C1=C(CNCc2ccccc2)NC(=O)NC1c1ccc(C)cc1 (configuration not stated)	inactive	–
C=CCNC(=O)Nc1ccc(F)cc1F	inactive	–
COC(=O)c1sc2cc([N+](=O)[O-])cc(SCC(C)C)c2c1N	inconclusive: 7.94 µM [inhibitor, partial curve]	–

Compound	Potency	activity, negative = inhibition
O=C(NC1CCCCC1)c1cc2nc3c(c(C(F)(F)F)n2n1)CCCC3	inactive	–
Cc1cccc(N2CCN(C(=O)c3cn(C)c(=O)c4c3c3ccccc3n4C)CC2)c1C	inconclusive: 25.1 µM [inhibitor, partial curve]	–
O=c1[nH]c2cc(C(F)(F)F)ccc2n1-c1cc(C(F)(F)F)ccc1O	inconclusive: 22.4 µM [inhibitor, partial curve]	–
O=c1/c(=C/c2ccc([N+](=O)[O-])cc2)sc2n1CCCN=2	inconclusive: 8.91 µM [inhibitor, partial curve]	–
COc1ccc(N(C(=O)c2ccccc2C)S(=O)(=O)c2ccc3c(c2)n(C)c(=O)n3C)cc1	inconclusive: 20 µM [inhibitor, single point]	–
O=C(/C=C/c1ccco1)N(Cc1cccc(Cl)c1)C1CCS(=O)(=O)C1 (configuration not stated)	inconclusive: 7.94 µM [inhibitor, partial curve, poor fit]	–
Cc1cc(N2CCN(C)CC2)nc2ccc(NC(=O)Nc3ccccc3Cl)cc12	active: 14.1 µM	–
CCOC(=O)N1CCC(=NNc2ncc(C(F)(F)F)cc2Cl)CC1	inactive	–
CCCc1ccc(-c2cc(C(=O)NN3CCOCC3)c3ccccc3n2)cc1	inactive	–
CCOC(=O)C(=O)N(Nc1ccccc1C)c1ccccc1C	inactive	–
O=C(/C=C/c1ccccc1)c1ccc2c3c(cccc13)CC2	inconclusive: 17.8 µM [inhibitor, partial curve, poor fit]	–
Cc1ccc(NC(=O)c2ccc3c(=O)n4nc(Nc5ccccc5C)sc4nc3c2)cc1C	inactive	–
Cc1c2cnn(CC(=O)N3CCCCC3)c(=O)c2c(C)n1Cc1ccc(Cl)cc1	inactive	–
O=C(COC(=O)c1ccccc1Nc1ccc(SC(F)F)cc1)NCc1ccco1	inactive	–
CC(=O)N1c2ccccc2NC2=C(C(=O)CCC2)C1c1ccco1 (configuration not stated)	inconclusive: 22.4 µM [inhibitor, single point]	–
COc1ccc(NC(=O)c2cccs2)cn1	inactive	–
O=C(Nc1sc2c(c1-c1nc3ccccc3[nH]1)CCCC2)C1CCCC1	inconclusive: 12.6 µM [inhibitor, partial curve, poor fit]	–
CCN(CC)c1ccc(N=Nc2ncn[nH]2)cc1	active: 12.6 µM	–
C=CCNc1ncnc2c1cnn2-c1ccc(C)cc1C	inactive	–
COc1cccc2c(Cl)c(CC=C(Cl)Cl)c(C)nc12	inconclusive: 14.1 µM [inhibitor, partial curve, poor fit]	–
Cc1nnc(SC(C)C(=O)Nc2ncc(Cl)cc2Cl)n1Cc1ccccc1 (configuration not stated)	inactive	–
CCOc1ccccc1NC(=O)C1CCN(S(=O)(=O)Cc2ccccc2)CC1	inactive	–
COC(=O)c1sc(-c2ccccc2)cc1NC(=O)C1CC1	inactive	–
N=C1SCC(=O)N1c1ncc(Cc2ccc(F)cc2)s1	inactive	–
